This experiment deals with RPE1. The experiment can be described thus: nucleolar normality score relative to DMSO (fraction of DMSO control); RPE1 is a non-cancer human cell line; higher = more normal nucleoli (less nucleolar stress). To be noted: 24 h.

Where “and” joins values, the source holds several entries; their conditions need not be identical. Equal values may be shown once. Where a name gives a salt, the structure may show the parent alone. The list shows a part of the results.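 The calls were made as follows: active = more than 2 SD below the DMSO mean: under 0.85 at 10 µM or 0.885 at 1 µM; inactive = the rest.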 Most values come without repeats; read them as rough.
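Also: fixed cells immunolabelled for nucleolin and UBF, 40 image fields per well in 384-well plates, per-cell score = nucleolin nucleolar/nucleoplasm intensity ratio divided by the matching UBF ratio.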

As for `Cc1ccc([C@@H]2O[C@H](CO)[C@@H](O)[C@H](O)[C@H]2O)cc1Cc1ccc(-c2ccc(F)cc2)s1` [Canagliflozin], the nucleolar normality score reads like this: (1 µM) inactive: 1.08; (10 µM) inactive: 0.929.

Take `O=C(Oc1cccc(F)c1OC(=O)c1cccc(O)c1)c1cccc(O)c1`: the nucleolar normality score reads like this: (1 µM) inactive: 0.978; (10 µM) inactive: 1.08.

For `COc1ccc(Cl)cc1NC(=O)Nc1cc(C)nc2ccccc12`, the nucleolar normality score (1 µM) was inactive: 0.981 and the nucleolar normality score (10 µM) was inactive: 0.931.

Regarding `COc1cc2ncnc(Nc3cccc(Cl)c3F)c2cc1OC(=O)N1CCN(C)C[C@H]1C`, the nucleolar normality score is inactive: 0.915 (1 µM) and inactive: 1.02 (10 µM).

On to `CC(C)Oc1ccc(-c2nn([C@@H](C)c3oc4ccc(F)cc4c(=O)c3-c3cccc(F)c3)c3ncnc(N)c23)cc1F` [umbralisib (TGR-1202)], for which the nucleolar normality score is inactive: 1.05 (1 µM) and inactive: 1.04 (10 µM).

For the compound `COc1cccc2c1C(=O)c1c(O)c3c(c(O)c1C2=O)CC(O)(C(=O)CO)CC3OC1CC(N)C(O)C(C)O1` (centres undefined) [Doxorubicin (Adriamycin) HCl], the nucleolar normality score is, setting by setting: (1 µM) active: 0.788; (10 µM) active: 0.618.

Take `COc1cc(Nc2c(C#N)cnc3cc(OCCCN4CCN(C)CC4)c(OC)cc23)c(Cl)cc1Cl` [Bosutinib (SKI-606)]: the nucleolar normality score (1 µM) was active: 0.854 and the nucleolar normality score (10 µM) is inactive: 0.891.

Regarding `CN(c1ncccc1CNc1nc(Nc2ccc3c(c2)CC(=O)N3)ncc1C(F)(F)F)S(C)(=O)=O`, the nucleolar normality score was inactive: 1.01 and inactive: 1.06 (1 µM); inactive: 0.872 and inactive: 0.902 (10 µM).

Regarding `CCOC(=O)c1cc(O)c(O)c(O)c1` [Ethyl gallate], the nucleolar normality score reads like this: (1 µM) inactive: 1.01; (10 µM) inactive: 1.08.

On to `CN1CCCN(C(=O)c2cccc(-c3ccc(/C=C4/C(=O)Nc5ccc(Cl)cc54)o3)c2)CC1`, for which the nucleolar normality score was inactive: 1.01 (1 µM) and active: 0.847 (10 µM).

`CNc1ccc([N+](=O)[O-])c(Nc2ccc3[nH]ncc3c2)n1`: the nucleolar normality score by setting is: (1 µM) inactive: 1.03; (10 µM) active: 0.808.

As to `O=C1c2c(O)ccc(O)c2C(=O)c2c(NCCNCCO)ccc(NCCNCCO)c21` [Mitoxantrone 2HCl], the nucleolar normality score reads like this: (1 µM) active: 0.121; (10 µM) active: 0.22.

In the case of `O=C(NNc1nc2cc(F)ccc2n2cccc12)c1cnccn1`, the nucleolar normality score by setting is: (1 µM) inactive: 0.964; (10 µM) inactive: 0.902.

In the case of `CC(C)c1cc(C(C)C)c(CC(=O)NS(=O)(=O)Oc2c(C(C)C)cccc2C(C)C)c(C(C)C)c1` [Avasimibe], the nucleolar normality score was inactive: 1.02 (1 µM) and inactive: 0.965 (10 µM).

On to `Cc1cc(Nc2ncnc3ccc(NC4=NC(C)(C)CO4)cc23)ccc1Oc1ccn2ncnc2c1` [Irbinitinib (ARRY-380, ONT-380)], for which the nucleolar normality score by setting is: (1 µM) inactive: 1.03; (10 µM) inactive: 0.991.

For the compound `C=CCNc1ncnc2ccc(Br)cc12`, the nucleolar normality score by setting is: (1 µM) inactive: 0.977; (10 µM) inactive: 0.986.

Take `COc1cc(Nc2ncc3c(n2)-c2ccc(Cl)cc2C(c2c(F)cccc2OC)=NC3)ccc1C(=O)O` [Alisertib (MLN8237)]: the nucleolar normality score (1 µM) was active: 0.801 and the nucleolar normality score (10 µM) is inactive: 0.923.

Regarding `Cc1ccc(Nc2nccc(N(C)c3ccc4c(C)n(C)nc4c3)n2)cc1S(N)(=O)=O`, the nucleolar normality score was inactive: 1.02 (1 µM) and inactive: 1.02 (10 µM).

Regarding `CCc1ccc(/C=C2/SC(=S)NC2=O)cc1`, the nucleolar normality score was inactive: 0.927 (1 µM) and inactive: 0.985 (10 µM).

On to `O=c1cc(N2CCOCC2)oc2c(-c3ccccc3)cccc12`, for which the nucleolar normality score was inactive: 1.02 (1 µM) and inactive: 1.03 (10 µM).

As to `COc1cccc(-c2cc(F)ccc2C2Cc3nc(N)nc(C)c3C(=O)N2)n1` (centres undefined), the nucleolar normality score by setting is: (1 µM) active: 0.384; (10 µM) active: 0.398.

For the compound `CCOC(N)=O` [Urethane], the nucleolar normality score (1 µM) was inactive: 1.03 and the nucleolar normality score (10 µM) is inactive: 1.06.

On to `Nc1ncccc1-c1nc2ccc(-c3ccccc3)nc2n1-c1ccc(C2(N)CCC2)cc1` [Miransertib (ARQ 092) HCl], for which the nucleolar normality score is inactive: 1 (1 µM) and inactive: 1 (10 µM).

As to `COc1ccc2cc1Oc1ccc(cc1)C[C@H]1c3cc(c(OC)cc3CCN1C)Oc1c(O)c(OC)cc3c1[C@H](C2)N(C)CC3` [Fangchinoline], the nucleolar normality score by setting is: (1 µM) inactive: 0.993; (10 µM) inactive: 1.01.

In the case of `COc1ccc2cc1Oc1ccc(cc1)C[C@H]1c3cc(c(OC)cc3CCN1C)Oc1c(O)c(OC)cc3c1[C@H](C2)N(C)CC3` [(+)-Fangchinoline], the nucleolar normality score runs as follows: (1 µM) inactive: 1.02; (10 µM) inactive: 1.03.

Consider `O=C1c2cccc(O)c2C(=O)c2c(O)cccc21` [Danthron], for which the nucleolar normality score reads like this: (1 µM) inactive: 1.07; (10 µM) inactive: 1.07.

Consider `Cc1c(C(=O)Nc2ccc(N3C[C@@H](C)O[C@@H](C)C3)nc2)cccc1-c1ccc(OC(F)(F)F)cc1` [Sonidegib (Erismodegib, NVP-LDE225)], for which the nucleolar normality score reads like this: (1 µM) inactive: 1.02; (10 µM) inactive: 1.08.

Take `Nc1cc(C(F)(F)F)c(-c2cc(N3CCOCC3)nc(N3CCOCC3)n2)cn1` [Buparlisib (BKM120, NVP-BKM120)]: the nucleolar normality score runs as follows: (1 µM) inactive: 1.03; (10 µM) inactive: 0.977.

As for `Cc1cnc(NC(=O)Nc2cc(Br)c(C)cc2OC[C@@H]2CNCCO2)cn1`, the nucleolar normality score is inactive: 0.994 (1 µM) and inactive: 0.928 (10 µM).

Consider `Clc1ccc(C(c2ccccc2Cl)C(Cl)Cl)cc1` (centres undefined) [Mitotane], for which the nucleolar normality score reads like this: (1 µM) inactive: 1.03; (10 µM) inactive: 0.988.

For `c1ccc(-c2nn3c(c2-c2ccnc4cc(OCCN5CCOCC5)ccc24)CCC3)nc1`, the nucleolar normality score is, setting by setting: (1 µM) active: 0.884; (10 µM) inactive: 0.953.

With `Nc1ccc(C(=O)O)c(O)c1` [4-Aminosalicylic acid], the nucleolar normality score reads like this: (1 µM) inactive: 1.03; (10 µM) inactive: 0.878.

As to `COc1cc(CCc2cc(NC(=O)c3ccc(N4CC(C)NC(C)C4)cc3)n[nH]2)cc(OC)c1` (centres undefined), the nucleolar normality score (1 µM) was inactive: 1 and the nucleolar normality score (10 µM) was inactive: 0.882.

Turning to `CNCc1ccc(C)c(NC(=O)c2ccc(Nc3nc(-c4ccccc4)c4ccccc4n3)cc2)c1`, the nucleolar normality score reads like this: (1 µM) inactive: 0.91; (10 µM) inactive: 0.973.

For the compound `Cc1cc(F)c(C(=O)Nc2cccc(-c3nncn3C(C)C)n2)cc1-n1cnc(C2CC2)c1` [Selonsertib (GS-4997)], the nucleolar normality score runs as follows: (1 µM) inactive: 0.958; (10 µM) inactive: 1.03.

For `CC(C)(O)CC(=O)NCCn1ccc2ncnc(Nc3ccc(Oc4cccc(C(F)(F)F)c4)c(Cl)c3)c21`, the nucleolar normality score runs as follows: (1 µM) inactive: 1.02; (10 µM) inactive: 1.05.

`C[C@H](Nc1ncnc2nc[nH]c12)c1cc2cccc(Cl)c2c(=O)n1-c1ccccc1` [Duvelisib (IPI-145, INK1197)]: the nucleolar normality score by setting is: (1 µM) inactive: 1.04; (10 µM) inactive: 0.875.
